Experimental data taken from the supplement of paper PMC7826260.
This is one part of the list. Viral Rep nickase domains cut single-stranded DNA in vitro (3 µM enzyme, 1 h, 37 °C); shown is the middle of each 90-letter strand. The score is log2 (uncut reads / reads without enzyme); uncut sequences lie near 0, cut ones below; no hit call is given. Reads are scaled to the total; where an enzyme cuts many sequences, the uncut ones exceed 0.

Test system: T1, Rep nickase domain of tomato golden mosaic virus
T1 sequence (residues 1-124, tag not shown): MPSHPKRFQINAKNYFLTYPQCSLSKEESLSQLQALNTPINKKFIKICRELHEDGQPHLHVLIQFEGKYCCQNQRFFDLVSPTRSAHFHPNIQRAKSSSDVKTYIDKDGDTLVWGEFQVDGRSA
Test: uncleaved DNA left, log2 of reads against the no-enzyme library (log2 ratio); higher = less cleavage (more negative = more Rep cleavage of the k-mer); sequences stand for … in CTCGTCCG…ACCGGAGA
Procedure: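 A pool of 90-nt single-stranded DNAs with seven random bases just before the constant AC of the nick site (name = the seven bases) was cut by 3 µM recombinant His6-SUMO-tagged Rep nickase domain (300 nM DNA, 50 mM HEPES pH 8.0, 50 mM NaCl, 1 mM MnCl2, 1 h, 37 °C, three replicates). Uncut DNA was amplified and sequenced.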

| Sequence | uncleaved DNA left (log2) |
| --- | --- |
| GCTGACT | 0.087 |
| AGATATC | 0.0212 |
| CTCTAAC | 0.016 |
| CACAAAG | 0.115 |
| AACACAT | 0.0355 |
| CTCGAAT | -0.084 |
| CATTCCT | -0.127 |
| CGGGATA | 0.085 |
| GTACTAG | 0.137 |
| CGTTTTG | -0.078 |
| CCAAACA | -0.0408 |
| AGATGGG | 0.0378 |
| TAAGCAC | -0.0782 |
| TTGTAGA | -0.0172 |
| TTATCGA | -0.0978 |
| TGAAGCA | 0.169 |
| GTTATAC | 0.0559 |
| GCGCCAT | -0.0889 |
| ACTCTAA | 0.0915 |
| ATTGTGA | -0.159 |

| Sequence | uncleaved DNA left (log2) |
| --- | --- |
| GTTCTGC | 0.0373 |
| TCGTGGG | 0.0964 |
| CCGCGTA | -0.12 |
| TGATGTC | 0.0168 |
| TTTATTA | 0.0663 |
| AACCTGC | -0.0391 |
| GATTGAC | -0.073 |
| ACAATAT | 0.159 |
| GTAGTTT | 0.0818 |
| TTCCACC | -0.0967 |
| CTATTAA | 0.237 |
| GCTCGGA | 0.113 |
| CCTGGGA | -0.000274 |
| TCGTATC | -0.0649 |
| AGGGCTG | 0.13 |
| GCTAGAC | 0.107 |
| ACGCTTA | 0.152 |
| GTAAACT | 0.118 |
| TCACGTG | -0.0392 |
| GCTACGA | -0.109 |
